According to PubChem BioAssay (NCI):
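Dose response: 5 concentrations. Exposure: 48 h. Format: 96-well plates. Endpoint: linear interpolation; highest concentration if not reached. GI50 marks 50% less growth. TGI denotes the concentration required for complete inhibition of growth.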

What follows are compounds tested on NCI-H322M lung (assay: DTP human tumour cell line panel, 48 h).

| Structure (SMILES) | GI50 | TGI |
| --- | --- | --- |
| OCc1ccc(N(Cc2ccc(F)cc2)CC2CC2)cc1Cl | 9.7 µM | 22.1 µM |
| CCOP(=O)(/C=C/n1ccc(N)nc1=O)OCC | – | > 100 µM |
| CC1=C2C(=O)c3ccccc3C(=O)[C@H]2C[C@@H](N2CCCC2=O)O1 | – | > 100 µM |
| O=c1c2ccc(Cl)cc2oc2c(CNc3ccc(S(=O)(=O)Nc4nccs4)cc3)cccc12 | – | > 100 µM |
| CCOC(=O)c1c(SCc2ccccc2)nc2c3ccccc3ccn12 | – | > 100 µM |
| O=C(O)CSc1ccc(N=C=S)cc1 | – | > 100 µM |
| O=CC1=C(C(=O)OC(c2ccccc2)c2ccccc2)N2C(=O)[C@@H](NC(=O)Cc3cccs3)[C@H]2SC1 | – | > 100 µM |
| COC(=O)CCc1ccc2c(c1)[C@H](C(=O)OC)[C@@H](c1ccc(O)cc1)O2 | – | > 100 µM |
| ClC1=C(Cl)C(Cl)(Cl)SS1 | – | > 10 µM |
| COc1ccc(Oc2ccc3cc4c(cc3c2O)OCO4)c2cc(C)oc12 | – | > 100 µM |
| COC(=O)C1=CN(CC2=CC(=O)C(C)=CC2=O)C=C(C(=O)OC)C1c1cc(OC)ccc1OC | 18.8 µM | 40.3 µM |
| COc1cc(-c2csc(NC(=O)Nc3ccc(Cl)c(C(F)(F)F)c3)n2)cc(OC)c1OC | 1.56 µM | 5.03 µM |
| CCOC(=O)/C(C#N)=C/c1ccc(SCc2ccco2)c([N+](=O)[O-])c1 | – | > 100 µM |
| CCCCCCCCCCn1cccc1/C=C/c1ccc(/C=C/c2cccn2CCCCCCCCCC)cc1 | – | > 100 µM |
| Cn1ncc2c(Nc3ccc(Cl)cc3)c3ccccc3nc21 | – | 42.1 µM |
| COc1nc(NC2OCC(OC(C)=O)C(OC(C)=O)C2OC(C)=O)c(-c2csc(N)n2)c(=O)n1C (centres undefined) | – | > 100 µM |
| Nc1ccc(I)cn1 | – | > 100 µM |
| CC1(O)CCC(C(C)(C)O)CC1 (centres undefined) | – | > 100 µM |
| S=C1N=C2C(=N1)n1c3c(c4ccccc41)CCCC23 (centres undefined) | – | > 100 µM |
| Nc1ccc(S(=O)(=O)Nc2cnc3ccccc3n2)cc1 | – | > 100 µM |
| Oc1cccc(-c2nc(-c3n[nH]c(=S)n3-c3ccccc3)cc3c2[nH]c2ccccc23)c1 | 2.37 µM | 9.44 µM |
| CC1=NN(C(=O)CC(=O)N(C(=O)c2ccccc2)c2ccc(Cl)cc2)C(=O)C1N=Nc1ccc([N+](=O)[O-])cc1 (centres undefined) | – | > 10 µM |
| CN(/N=C(\C(=O)O)c1ccccc1)C1=NCCN1 | – | > 100 µM |
| COc1ccc2c(c1)[n+]([O-])c(C#N)c(NC(=O)c1cccs1)[n+]2[O-] | > 100 µM | > 100 µM |
| Cc1nn(C(=O)c2ccccc2O)c2c1C(c1ccco1)SC(N)=N2 (centres undefined) | – | > 10 µM |
| O=C(O)c1ccccc1Sc1ccccc1[N+](=O)[O-] | – | > 100 µM |
| CC1CC(=O)C2CC(CO)=CCCC2C1(C)CC/C(=C/CO)CO (centres undefined) | – | > 100 µM |

| Structure (SMILES) | GI50 | TGI |
| --- | --- | --- |
| C[CH2][Pb]([CH2]C)([CH2]C)[O]C(=O)COc1ccccc1 | 1.98 µM | 6.32 µM |
| COc1ccc(C(O)c2cc(OC)c(OC)c(OC)c2)cc1 (centres undefined) | – | > 100 µM |
| COc1ccc(Nc2nc3cc(C(F)(F)F)ccc3nc2C(=O)O)cc1 | – | 98 µM |
| CCc1cccc(CC)c1NC(=O)C(C#N)C1=C(Cl)C(=O)c2ccccc2C1=O (centres undefined) | – | 40.3 µM |
| Cc1cc(O)c(/C=N/c2nc(-c3ccc([N+](=O)[O-])cc3)cs2)c(=O)o1 | – | > 100 µM |
| C/C(=N\NC(=O)c1ccncc1)c1ccccc1Cl | – | > 100 µM |
| CC(=O)c1cc(I)c(O)c2ncccc12 | – | > 10 µM |
| COc1cc2c(cc1OCc1ccccc1)N=CC1C[C@@H](O)CN1C2=O (some centres undefined) | 20.4 µM | 72.5 µM |
| CC(=O)OCC1(C)C(OC(C)=O)CCC2(C)C(CC(OC(C)=O)C3=CCOC3=O)C(O)(CO)CCC12 (centres undefined) | – | > 100 µM |
| Cc1cc(N(CCNc2ccnc3cc(Cl)ccc23)Cc2cccs2)nc(Cl)n1 | 1.75 µM | 4.16 µM |
| O=C(CCc1ccc(O)c(O)c1)NCCc1cc(O)cc(OCc2ccccc2)c1 | – | > 100 µM |
| C[n+]1c2ccccc2c(Nc2ccc(N3CCCCC3)cc2)c2[nH]c3ccccc3c21 | 0.7 µM | 2.02 µM |
| CN1CCN(CC(=O)N2c3ccccc3Sc3cc4ccccc4cc32)CC1 | – | 28.4 µM |
| Nc1ccc(C(=O)NN2C(=O)[C@H](Cl)C2c2ccc(Cl)cc2)cc1 (some centres undefined) | – | 5.21 µM |
| CCCC(=O)c1c(NOC2OCC(OC(C)=O)C(OC(C)=O)C2OC(C)=O)nc(OC)n(C)c1=O (centres undefined) | – | > 100 µM |
| COc1ccc(Nc2nc3c(N)cc(C(F)(F)F)cc3nc2-c2ccccc2)cc1OC | – | > 100 µM |
| Cc1cc(O)c(C=O)c(C)c1CCC1(C)C=Cc2cc(O)ccc2O1 (centres undefined) | – | 84.1 µM |
| Cc1cc(Nc2ccc3c(c2)OCO3)c2cc3c(cc2n1)OCO3 | 5.78 µM | 47.5 µM |
| CC(C)(CN1CCCCC1)C(=O)/C=C/c1ccc(Cl)c(Cl)c1 | – | > 100 µM |
| Cc1cc(C(C)C)cc(O)c(=O)c1 | – | > 100 µM |
| Cc1ccccc1N(CC(=O)O)S(=O)(=O)c1ccccc1 | – | > 100 µM |
| COc1ccc(CCCNC(=O)Cc2cc(OC)c(OC)cc2CO)cc1OC | – | > 100 µM |
| CC1=NN(C(=O)c2ccc(Cl)cc2)C(=O)C1N=Nc1ccc(S(=O)(=O)Nc2ncccn2)cc1 (centres undefined) | – | > 100 µM |
| CC(=O)OCCOCn1c2c(c(=O)[nH]c1=O)CCC2 | – | > 100 µM |
| CC(CC(=O)O)(CC(=O)O)c1ccccc1 | – | > 100 µM |
| CCOC(=O)C(NC(=O)CC)(Nc1ccccc1OC)C(F)(F)F (centres undefined) | – | > 100 µM |
| CC(=O)N(O)CCCCCNC(=O)CCC(=O)N(O)CCCCCNC(=O)CCC(=O)N(O)CCCCCN | – | > 100 µM |
